# Assay results reported in publication PMC6212790.
# The list shows a part of the results. At the low end of the ranking the order means little.
# Target: T1, GST-Rok (full length) (UniProt O34857)
# T1 sequence: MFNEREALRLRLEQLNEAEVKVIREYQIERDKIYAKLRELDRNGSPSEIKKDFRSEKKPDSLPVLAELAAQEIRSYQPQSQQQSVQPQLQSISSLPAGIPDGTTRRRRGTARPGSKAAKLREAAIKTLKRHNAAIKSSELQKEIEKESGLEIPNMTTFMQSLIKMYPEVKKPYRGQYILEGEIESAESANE
# Assay: protein binding microarray;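 also: rank score from −0.5 (least bound) to 0.5 (best bound)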
# Settings: Rok is a gene silencer of Bacillus subtilis; high values mean tight binding; most listed sequences are background and not binding sites; double strand, one strand shown
row,Sequence,binding signal [E-score]
1,ACCTAATG,-0.00946
2,ACCTGTGA,-0.144
3,GGAATACA,-0.00371
4,GATATCGA,0.265
5,CAGGTATC,-0.173
6,ATCTCCCC,-0.211
7,AATTCAAG,0.0633
8,CACTGGAC,-0.168
9,AATACTCG,0.085
10,AATTTCAG,0.105
11,AATAAGCC,-0.0305
12,ACTACAAT,0.344
13,AAGATATC,0.208
14,ATCGTCGG,-0.0275
15,AGACAGCC,-0.117
16,AAGGGTTG,-0.192
17,CCGATGCG,-0.217
18,CTTAACTA,0.313
19,CATATTCA,-0.0382
20,CACAAGGG,-0.425
21,GGGCATCA,-0.161
22,CCCAAAAC,-0.147
23,TCACAACA,-0.157
24,TCGTGTCA,-0.278
25,TATATAGA,0.404

row,Sequence,binding signal [E-score]
1,CCTTCTCA,-0.273
2,CCATACCC,-0.291
3,AAGACCTC,-0.306
4,CGCTAACA,0.116
5,ATGGTAAG,0.205
6,AGTAGCAT,0.291
7,AACGATGT,0.0657
8,CCAAATAG,-0.0889
9,AGATTCTA,0.282
10,CGAGTCCG,-0.0283
11,AATTAACA,0.0704
12,GCCTCCAA,-0.236
13,CACATCGA,0.0672
14,CCCCTCCA,-0.389
15,ACAACGGC,-0.0679
16,GTGTGCGA,-0.187
17,CGTACCGC,-0.291
18,GATCCTCC,-0.262
19,CTTAACAA,0.111
20,AAACTAGG,0.252
21,AGTTCCTC,-0.0871
22,CACACTTA,0.11
23,GTCCCGGA,-0.141
24,GCGCTACC,0.0207
25,AAGAGGGG,-0.472

row,Sequence,binding signal [E-score]
1,GTAAGCAC,-0.0551
2,CTGGCGTC,-0.267
3,CTGGTTCC,-0.187
4,AACGTTTC,-0.0207
5,ATGTCCCA,-0.24
6,GAATTTGC,0.0837
7,AAATCGGG,-0.117
8,GCGGGGAA,-0.25
9,AGGTCACG,-0.0554
10,AATTACCG,0.32
11,CATATGTC,-0.0495
12,CTCTGTGC,-0.0787
13,AAGGGACC,-0.35
14,AGGACAAC,-0.00864
15,ACGACATG,0.136
16,AGCCACTC,-0.241
17,CCCAGGTC,-0.406
18,CCTACACG,0.094
19,CGTGCCAA,-0.162
20,CCTGAGGA,-0.243
21,ACGCGGCA,-0.129
22,AATACGGA,0.0922
23,TAAGATTA,0.22
24,GCTTCTTA,0.0708
25,ATACATTC,0.259

row,Sequence,binding signal [E-score]
1,CAAGTTGC,-0.00109
2,ACAAGGCG,-0.168
3,AACGGTTG,0.0856
4,GTCTTCCA,-0.135
5,GTGATCAC,-0.16
6,GATCAGCC,-0.259
7,ACCGTGTC,0.104
8,AAGTTTAG,0.22
9,GACACGAC,-0.0441
10,GATTCACA,0.0605
11,CAGACTTA,-0.0703
12,AACGGTCA,-0.228
13,GCGTATAA,0.249
14,AAACGAAA,0.064
15,CGTTGAAA,0.00463
16,AGTACAGG,0.06
17,AGTTATGG,0.209
18,CTTGTACC,0.0552
19,AGAGGCCA,-0.17
20,GCCGCAAC,-0.231
21,ACGTTTCA,-0.143
22,GCAACGCA,-0.126
23,ACAGTTCT,0.204
24,CTGGGGAC,-0.289
25,CCCAGTAA,-0.137

row,Sequence,binding signal [E-score]
1,GCAATGGC,-0.288
2,CAGAACGG,-0.0464
3,TCAAAGCA,0.154
4,CTCCCACA,-0.0653
5,CAAAAATG,-0.0399
6,AATCAGGA,-0.0153
7,TCGGCGCA,-0.264
8,CGGGAGAA,-0.0902
9,ACGAAGCC,-0.16
10,ACATTGCC,-0.0325
11,AGCAACGA,-0.0987
12,CTCCGGTC,-0.181
13,AACGTGCC,-0.144
14,GTGTCTTA,-0.0198
15,ACCCATCC,-0.0647
16,TGTCGGAA,-0.177
17,ACATTCCT,-0.00444
18,CGTTTGCC,-0.104
19,CAGAACAA,-0.0915
20,AGCTACCG,0.309
21,TACGGCAA,0.138
22,ATCTGATA,0.237
23,AGCACTAT,0.0981
24,GCTATCCA,0.0426
25,AAACTGTG,-0.00412

row,Sequence,binding signal [E-score]
1,ACTATTAC,0.407
2,ATCTTAAC,0.199
3,ATCCCTCA,-0.24
4,AGCACTGG,-0.246
5,CCCTGCAC,-0.37
6,AGCGCGGG,-0.274
7,CACCGTCA,-0.143
8,GCCGTCCA,-0.24
9,TGCTCCAA,-0.193
10,GCATCTCA,-0.0845
11,AGTCGATC,-0.0567
12,CCTCGACG,-0.138
13,GTCAGCAC,-0.165
14,AGCGATGG,-0.0613
15,ACTAGCTG,0.179
16,AATTCTAG,0.321
17,CAAAGCAC,-0.0461
18,ACAGTTAA,0.109
19,AGAATAAT,0.227
20,AGCCTACC,-0.0411
21,GTGCATCA,0.0778
22,CCGCACAC,-0.19
23,AAGATGAG,0.0577
24,CAACTCCA,-0.0874
25,ACCAATGG,0.0184

row,Sequence,binding signal [E-score]
1,ACTTCAAC,0.077
2,GATCTGGA,-0.114
3,GGGAAACC,-0.209
4,AGGTAACG,-0.0854
5,CCACGACG,-0.0637
6,AGTAAGCA,0.0894
7,CTAAATGA,0.193
8,GTAAACGA,-0.0497
9,GACCAAGC,-0.0833
10,CGTGATCA,0.00654
11,ATGCTTTA,-0.0817
12,ATGGTCAC,-0.0409
13,AGACATTG,0.0664
14,AAGATCCA,-0.126
15,ATTATTCC,0.222
16,AATCCACC,-0.178
17,AGGCGACA,-0.0777
18,GGAACATA,0.00433
19,GCCGGTGA,-0.0673
20,CCGCCCCG,-0.491
21,CGGCCATC,-0.304
22,AAATTCAC,0.202
